From ChEMBL document CHEMBL1201862, “PubChem BioAssay data set” (2004)
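Assay format: 96-well plates, 48-hour exposure. The concentration for 50% growth inhibition is given as GI50.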 The source made the active and inactive calls. Rule as the data show it: active = GI50 up to about 1.1 µM and inactive = higher. Square brackets hold non-standard residues; d marks the D form. Peptide text beside a SMILES is read from it. * marks the point of attachment. NMeF = CN[CH](Cc1ccccc1)C(=O)O; NMeV = CN[CH](C(=O)O)C(C)C; Boc = CC(C)(C)OC(=O)*

What follows are molecules tested on NCI-H322M (assay: NCI anticancer screen, dose series, 48 h).

| Structure (SMILES) | GI50 |
| --- | --- |
| CC(C)C(NC(=O)OC(C)(C)C)C(=O)N(C)C(Cc1ccccc1)C(=O)N(C)C(C(=O)N(C)C(C(=O)O)C(C)C)C(C)C (configuration not stated) (Boc-V[NMeF][NMeV][NMeV]-OH; configuration not given here) | inactive: > 100 µM |
| COc1ccccc1-c1csc(CCC(N)C(=O)O)n1 (configuration not stated) | inactive: > 100 µM |
| O=c1cnn(C2OC(CO)C(O)C(F)C2O)c(=O)[nH]1 (configuration not stated) | inactive: > 100 µM |
| Oc1ccc(Cc2cc(Cl)cc(Cl)c2O)cc1Cl | inactive: 19.6 µM |
| COC(=O)CNC(=O)CSc1nnc(COc2ccc(Cl)cc2)n1-c1ccccc1 | inactive: 18.9 µM |
| O=C1CCCSC(=O)N1Cc1ccccc1 | inactive: > 100 µM |
| O=C1CC(n2ccnc2)c2c(Cl)sc(Cl)c21 (configuration not stated) | inactive: 19.2 µM |
| CCCCCC(=O)OC[n+]1ccc(-c2c(COC(=O)NC(C)C)c(COC(=O)NC(C)C)c3n2CCC3)cc1 | inactive: > 100 µM |
| O=C1c2c(O)cccc2C(C(=O)CCCCC(=O)C2c3cccc(O)c3C(=O)c3c(O)cccc32)c2cccc(O)c21 | active: 0.885 µM |
| CCOc1ccc(N/C(=C(/C(Cl)=C(/Cl)Nc2ccccc2)[N+](=O)[O-])n2nnc3ccccc32)cc1 | inactive: 25.7 µM |
| O=C1C[C@@H]2[C@@H](CCC23CCCC3)N1 | inactive: > 100 µM |
| C1CSC(Sc2nc(SC3=NCCS3)nc(SC3=NCCS3)n2)=N1 | inactive: > 100 µM |
| COC(=O)C1(C)CCC(c2ccc(C)cc2)=C(CC(=O)O)C1 (configuration not stated) | inactive: > 100 µM |
| CCCCCCCCCCCCCCNCC(OC)OC | inactive: 16.3 µM |
| CCOC(=O)/C(=N\Nc1ccc(-n2c(C)nc3ccc(Br)cc3c2=O)cc1)C(C)=O | inactive: > 100 µM |
| C1=N\CCN2CCN(CC/N=C\c3ccc(cc3)OCc3cccc(n3)COc3ccc/1cc3)CC2 | inactive: > 50 µM |
| Cn1nc(C(=O)N2CC(CCl)c3c2cc(N)c2ccccc32)cc1NC(=O)Nc1cc(C(=O)N2CC(CCl)c3c2cc(N)c2ccccc32)nn1C (configuration not stated) | active: 0.299 µM |
| CCO/N=[N+](\[O-])N(CC)CC | inactive: > 100 µM |
| Cn1c(=O)c2c([nH]/c(=N/N=C/c3ccccc3C(=O)O)n2C)n(C)c1=O | inactive: > 100 µM |
| O=C1NC(N2CCCC(CO)C2)=N/C1=C\c1ccccc1 (configuration not stated) | inactive: > 100 µM |
| O=C1Nc2ccccc2/C1=N\c1cccc2ncccc12 | inactive: 58.3 µM |

| Structure (SMILES) | GI50 |
| --- | --- |
| COCn1cnc2c(=O)n(-c3ccc(C)cc3)c(=S)n(-c3ccc(C)cc3)c21 | inactive: > 100 µM |
| COC(=O)/C=C(\C)CC/C=C(\C)CCC(O)C(C)(C)O (configuration not stated) | inactive: > 100 µM |
| O=C1[C@@H]2C(c3c(Cl)cccc3Cl)=NO[C@@H]2C(=O)N1c1ccc(Cc2ccc(N3C(=O)[C@H]4C(c5c(Cl)cccc5Cl)=NO[C@H]4C3=O)cc2)cc1 | inactive: > 100 µM |
| Cc1cc(C)n(CN(Cn2nc(C)cc2C)c2ccc(N(Cn3nc(C)cc3C)Cn3nc(C)cc3C)cc2)n1 | inactive: 22.5 µM |
| c1ccc2c(NCCCCCCNc3c4ccccc4nc4ccccc34)c3ccccc3nc2c1 | active: 0.316 µM |
| CC(C)(C)OC(=O)NC(Cc1ccccc1)NC(=O)NC(=O)OCc1ccccc1 (configuration not stated) | inactive: 32.7 µM |
| COc1ccc2oc(C(=O)N3CC(CCl)c4ccc([N+](=O)[O-])cc43)cc2c1 (configuration not stated) | inactive: > 100 µM |
| Cc1c(C)n(COCCO)c2ncnc(N)c12 | inactive: > 100 µM |
| Cc1cc2[nH]c3c(C#N)c4c(c(=O)n3c2cc1C)CCCC4 | inactive: > 100 µM |
| COC(=O)c1nc(-c2ccc(Cl)c(Cl)c2)nc2ccc(Cl)cc12 | inactive: > 100 µM |
| COc1cc2c(cc1OC)C(C1(O)CCCCC1)NCC2 (configuration not stated) | inactive: > 100 µM |
| COc1cc(C2S/C(=C/c3ccccc3)C(=O)N2c2cc(Cl)ccc2Cl)cc(OC)c1OC (configuration not stated) | inactive: 56 µM |
| Cn1c2ccccc2c2[nH]cc3nc4ccccc4c-3c21 | inactive: 17.9 µM |
| CSc1nc(SC)c2c(C)c(Br)[nH]c2n1 | inactive: > 100 µM |
| CC(C)(C)C1=NC(=P(c2ccccc2)(c2ccccc2)c2ccccc2)C(=O)O1 | inactive: > 100 µM |
| O=C1c2cc([N+](=O)[O-])sc2C(=O)c2cc([N+](=O)[O-])sc21 | inactive: 10 µM |
| Cc1c2c(cc3c1[nH]c1ccccc13)C=NCC2 | inactive: 8.91 µM |
| COc1cc(/C=C/C(=O)c2sc(Nc3ccccc3)nc2C)ccc1O | inactive: 43.9 µM |
| Cc1ccc(/C=C/C(=O)C(C)(C)CN2CCCCC2)cc1 | inactive: 5.2 µM |
| CC12CC3(O)OC(O1)C1(COC(=O)c4ccccc4)C3CC21OC1OC(CO)C(O)C(O)C1O (configuration not stated) | inactive: > 100 µM |
| C=C(C)[C@H]1CC[C@@]23O[C@@H]2[C@@H](C[C@@]2(C)CC(=O)[C@H](CC(=O)C1)O2)OC(=O)[C@@]12CC[C@H](C(=C)C)CC(=O)C[C@H]4O[C@](C)(CC4=O)C[C@@H](OC3=O)[C@@H]1O2 [SINGARDIN] | inactive: > 100 µM |
